# Test results as given in the supplement of paper PMC3334620.
# The full ranking holds about 33,000 sequences; the median of “E-score (-0.5 to 0.5)” is about -0.01, and the highest 2% start at about 0.26. The list shows a part of the results.
# Target: Ste12 (UniProt P13574)
# Assay: PBM E-score (8-mer binding enrichment) (E-score (-0.5 to 0.5)); higher = stronger / more preferred TF binding; most listed sequences are background and not binding sites
# Details: protein concentration: 200 nM; construct: GST-DNA-binding domain
# Method in brief: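 PURExpress in vitro transcription/translation supplied GST-tagged yeast transcription factors, either full-length or DNA-binding domain. Applied at about 100-200 nM to universal all-10-mer Agilent arrays double-stranded by primer extension, the bound protein was detected with fluorescent anti-GST. E-scores, modified Wilcoxon-Mann-Whitney statistics, were given by the Universal PBM Analysis Suite to ungapped eight-base words pooled with their reverse complements after masliner normalisation.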
row,Sequence,PBM E-score
1,CGGGAATA,0.109
2,AGCAGAAC,-0.0673
3,CGTATTGC,-0.118
4,ACGTTGGC,-0.0145
5,GACCATAC,-0.00275
6,GGCGACCC,0.0144
7,CGCTGACC,-0.144
8,AGTTAAGA,0.115
9,AGCACTTG,-0.326
10,GACTGGTA,-0.0655
11,AAACGCAG,0.00077
12,AAGTTCAG,0.114
13,CTAGCACC,0.0904
14,ACCTTCCC,0.102
15,CAAGTGTA,-0.079
16,ACAATCCC,0.164
17,AAGTTGGT,0.00975
18,GCGCGCAA,0.236
19,CTACTATA,0.0831
20,ACAAGGAA,0.242
21,GTACCGGA,-0.0824
22,GGGGGTTA,-0.168
23,CCGGGATA,-0.0779
24,CGCCGTCC,-0.168
25,AGTACTCA,-0.074

row,Sequence,PBM E-score
1,CCGGTCTC,-0.016
2,AGCATGCG,-0.217
3,ACTAGAGA,-0.043
4,CTATGTGC,-0.18
5,CGGGCGAC,-0.111
6,AGTCGTGA,-0.0721
7,ATATTTGA,0.117
8,ATGCCTTA,-0.0464
9,AGTCACCA,-0.182
10,AATGGCAG,-0.0267
11,AGGTGACA,-0.0124
12,ACATAACA,0.0867
13,GGTCCTCA,-0.163
14,AATCATGT,0.141
15,GCACGCCC,-0.0177
16,GCCCATGA,0.0702
17,CTAAGCTC,-0.106
18,ATGGTGCG,-0.0292
19,ACGGCCCT,-0.257
20,CACTTAAG,-0.0327
21,GAGTTTGC,0.0562
22,CATGAGTA,-0.0589
23,AGGATTCG,-0.0137
24,AGCTTCGA,-0.193
25,ACTTAAGT,0.0329

row,Sequence,PBM E-score
1,ACAGAGCG,-0.132
2,ATTGTGCG,0.01
3,TCTGGACA,-0.142
4,ACTGTCTC,-0.0447
5,ACAGACCG,-0.0542
6,ACACATCA,-0.0841
7,GAGGGGAC,0.0916
8,CGATTAAC,-0.181
9,CATTACCG,-0.16
10,CCCGTCTA,-0.125
11,GAAACAGC,0.232
12,CCGCTAAC,0.0696
13,GCGGAGTA,-0.183
14,ACCCGGGA,-0.0385
15,CACAATCG,0.0959
16,CCATGGCA,-0.0594
17,TAGGCGCA,0.0356
18,CCTGCTAC,0.0937
19,ACTCCGCA,-0.142
20,ACAGAACA,0.152
21,CCCTGATC,-0.167
22,CTGTCATA,-0.0309
23,ACCGGTCG,0.0556
24,CCCATCAC,-0.0321
25,CGAGAAGC,-0.0149

row,Sequence,PBM E-score
1,ATCACAGC,0.0176
2,AATGGGCC,0.0729
3,CTCAACAG,-0.0353
4,CCGGGTGC,-0.0677
5,CAAATGTA,0.242
6,CTATCTTA,0.0337
7,GCTAAATA,-0.00585
8,GAAGACGC,-0.11
9,CACCCCGG,-0.0768
10,AATCACAC,0.0306
11,GGAGTTAC,-0.209
12,GACGATTA,-0.0924
13,CCGACCCG,0.0798
14,CAATATCA,0.0717
15,GTCAGAAC,-0.0299
16,CAGCGGAA,0.0151
17,AGGTTACT,0.0862
18,AGACTCTG,-0.0653
19,AAAAATGT,0.223
20,AAATCATC,0.107
21,GCCATAGC,-0.204
22,CCTGTAAC,0.191
23,ACGTTGCG,0.0665
24,CCACAAAA,0.167
25,AGGAAATC,0.0869

row,Sequence,PBM E-score
1,ACTATAAT,0.274
2,CACTATGA,-0.127
3,CCCAACAC,0.0704
4,AGAAAAAT,0.062
5,ACTCGAGG,-0.0419
6,CCTTGCCG,-0.0344
7,GACAGCGC,0.0396
8,AGCGGAAC,-0.0118
9,GGACAATA,0.186
10,ATAGCGGA,-0.0903
11,CTAGCTTA,0.0454
12,CTGCGACC,0.0572
13,AACGCCGA,0.121
14,TTATCCAA,0.0779
15,GACGGAAC,-0.0863
16,AGCAGTGG,0.0371
17,AGGTCTGA,-0.0605
18,ACGTGTGC,-0.242
19,AAAGTCGG,-0.131
20,AGAATTGA,0.178
21,GTTAGTGA,-0.041
22,CCAAGCAA,0.00552
23,CACGTGCC,-0.112
24,AGTTAGAG,0.0692
25,CTGTTTCC,0.0865

row,Sequence,PBM E-score
1,AATGATCC,-0.0573
2,AGAACAAG,0.0467
3,AAGTAGCT,-0.247
4,GTTGTATA,0.0588
5,AAGAGGCA,-0.00294
6,ACCCATGG,-0.0496
7,CGATATTA,0.207
8,CCATGAGG,-0.134
9,GCAGAAAA,0.241
10,CGTTAGGA,0.0933
11,CGGTTTAA,0.00247
12,CACTATTA,0.0024
13,CATCAGAC,0.0597
14,ACGCCCAT,0.045
15,GCCTTAAA,0.184
16,ACATGTGG,0.0893
17,AAGTTGGA,0.0207
18,CGGAAGAC,0.052
19,CTTTAGCA,-0.0719
20,GAGCTGAC,-0.0301
21,CGCGGCCC,-0.0236
22,TCATACGA,0.177
23,CTTTCATC,0.0458
24,ATTGAAAA,0.352
25,ATCCCGAT,0.179

row,Sequence,PBM E-score
1,GCTAATTA,0.0451
2,GCGATCGA,0.0497
3,ATCAAACG,0.197
4,ACTTCGGC,-0.0993
5,GTGGTAAA,-0.0179
6,GATTCTGC,0.0363
7,CAGATTCA,-0.319
8,ACCCTTCC,-0.105
9,CACGGTCC,-0.197
10,CCACTTCA,-0.0451
11,ACCGTGCA,-0.108
12,AAAAACTC,0.142
13,CCAGAATA,0.137
14,AACATCTA,0.0785
15,CCAACTAA,0.00906
16,GTAGAGAA,0.0206
17,AGCTCCCA,-0.147
18,ATTACTGC,-0.0248
19,GTTTCGTA,0.248
20,GGGGCCCC,0.0827
21,CTTCCGAC,-0.105
22,CTTATACC,0.0136
